# Laboratory results published in PubChem BioAssay AID488969 (Vanderbilt High Throughput Screening Facility, 2010).
# In all, about 110,000 compounds were measured (“z-score”: median about -0.1, highest 2% from about 2 on). This is one part of the list. Activity calls are given as the source filed them.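 Rule for the calls: active = z-score in the third read window above 3 or below -3; inactive = the rest.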
# Target: Metabotropic glutamate receptor 8 (Rattus norvegicus) (UniProt P70579)
# Assay: mGluR8 Gi/Go-coupled signaling modulation – cell-based, rat, thallium flux, HTS, primary screen (AID 488969)
# Conditions: HEK293 rat mGluR8, GIRK (G protein-gated inwardly rectifying potassium channel) thallium flux, FluoZin2; at 10 µM; stronger effect = higher value; submaximal glutamate (EC20) added with thallium
# UniProt P70579, sequence (P70579 whole entry, looked up): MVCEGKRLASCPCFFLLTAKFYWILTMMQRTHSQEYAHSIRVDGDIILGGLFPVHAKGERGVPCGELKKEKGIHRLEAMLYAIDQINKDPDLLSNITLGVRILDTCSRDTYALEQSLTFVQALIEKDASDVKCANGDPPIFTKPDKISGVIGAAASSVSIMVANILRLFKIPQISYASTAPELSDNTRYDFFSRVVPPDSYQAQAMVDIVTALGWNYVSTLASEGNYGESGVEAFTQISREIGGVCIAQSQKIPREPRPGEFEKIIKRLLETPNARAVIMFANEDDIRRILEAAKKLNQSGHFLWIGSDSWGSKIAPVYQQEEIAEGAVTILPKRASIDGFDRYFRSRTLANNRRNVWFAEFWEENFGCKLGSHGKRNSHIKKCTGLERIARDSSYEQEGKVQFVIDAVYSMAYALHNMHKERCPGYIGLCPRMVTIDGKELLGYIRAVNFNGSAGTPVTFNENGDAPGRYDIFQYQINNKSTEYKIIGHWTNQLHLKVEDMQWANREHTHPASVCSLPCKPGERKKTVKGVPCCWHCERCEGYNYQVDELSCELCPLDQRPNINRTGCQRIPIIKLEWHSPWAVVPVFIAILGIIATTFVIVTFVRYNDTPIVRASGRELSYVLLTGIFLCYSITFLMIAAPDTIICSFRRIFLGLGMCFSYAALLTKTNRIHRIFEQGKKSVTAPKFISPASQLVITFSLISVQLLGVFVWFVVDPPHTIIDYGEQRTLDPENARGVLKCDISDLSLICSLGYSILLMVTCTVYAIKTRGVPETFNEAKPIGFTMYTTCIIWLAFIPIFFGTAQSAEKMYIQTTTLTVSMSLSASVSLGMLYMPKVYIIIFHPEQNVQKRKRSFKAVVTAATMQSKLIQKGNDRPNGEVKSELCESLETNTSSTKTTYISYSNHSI
row,Compound,z-score
1,O=c1[nH]c(SCc2cc(=O)n3ccccc3n2)nc2c1CCC2,-0.229
2,COc1cccc(Nc2nc(-c3ccc(O)cc3)cs2)c1,-0.635
3,CCNC(=S)NNC(=O)c1ccccc1OC(F)F,-0.0422
4,O=C1NC(c2ccncc2)Nc2sc3c(c21)CCCC3 (configuration not stated),-0.239
5,COCCn1c(=S)[nH]c2cc(C(=O)N3CCN(c4ccc(F)cc4)CC3)ccc2c1=O,active: 4.3
6,COCCN(CCOC)S(=O)(=O)c1ccc(C(=O)Nc2nc(-c3ccccc3)c(C(=O)c3ccccc3)s2)cc1,-0.275
7,COC(=O)CSc1c(-c2ccccc2)c2cc(Cl)ccc2[nH]c1=O,-0.594
8,COC(=O)Nc1ccc(S(=O)(=O)N2CCN(c3ccc(F)cc3)CC2)cc1,0.413
9,CC(C)(C)N(NC(=O)OCc1ccccc1)C(=O)c1ccccc1Cl,-0.285
10,Cc1ccccc1C(=O)N/C(=C/c1ccc(-c2cccnc2Cl)o1)C(=O)NCCCN1CCN(C)CC1,-0.021
11,Cc1cc(C)n(C(C[N+](=O)[O-])c2ccc(Cl)cc2)n1 (configuration not stated),-0.0311
12,c1ccc(SCCc2ccncc2)cc1,-0.316
13,CCCCCOC(=O)C1=C(C)NC(=O)NC1c1ccccc1OCC (configuration not stated),-0.85
14,CCOC(=O)c1ccc(-n2c(=S)sc3c(=O)[nH]c(C)nc32)cc1,-2.45
15,C=CCn1c(SCc2nc3ccccc3c(=O)[nH]2)nnc1-c1cc2cc(Cl)ccc2o1,-0.542
16,Cc1nc(NC(=O)c2ccco2)sc1-c1csc(Nc2ccc(Cl)cc2Cl)n1,-1.59
17,CCc1ccccc1NC(=O)CC(O)(C(=O)OC)C(F)(F)F (configuration not stated),-0.152
18,COc1cc(OC)cc(C(=O)NC(=S)NNC(=O)Cc2cccs2)c1,2.21
19,CS(=O)(=O)N(CC(=O)NCCC1=CCCCC1)c1ccc2c(c1)OCO2,0.874
20,COc1ccc(C(=O)NN(c2ccccc2)c2ccccc2)cc1,-0.0602
21,O=C(CCCN1C(=O)c2ccccc2C1=O)NCC1CCCO1 (configuration not stated),-0.206
22,CCN(CC)c1ccc(/C=c2\sc3nnc(-c4ccccc4Cl)n3c2=O)cc1,0.174
23,Cc1ccc(S(=O)(=O)c2c(C)nn(C(C)(C)C)c2OC(=O)c2ccc(Br)o2)cc1,-0.239
24,O=C(Cc1ccc2c(c1)CCCC2)Nc1ccccc1Br,0.000969

row,Compound,z-score
1,O=C(Nc1ccc(N2CCCCC2)cc1)c1ccc2c(c1)OCCO2,-0.0957
2,CCC(C(=O)Nc1ncccn1)(C(F)(F)F)C(F)(F)F,-0.452
3,CC(=O)C(N=Nc1ccccc1)(Sc1nnc(-c2ccccc2)n1-c1ccccc1)C(=O)Nc1ccccc1 (configuration not stated),0.064
4,CCOC(=O)c1c(NC(=O)CCc2ccc(CC)o2)sc(C)c1C,0.0113
5,O=C(Nc1ccccn1)NC12CC3CC(CC(C3)C1)C2,-0.535
6,CCCC(=O)NC(C)c1nc2ccccc2[nH]1 (configuration not stated),-0.0881
7,CC(C)C(=O)N1CCN(c2ccc([N+](=O)[O-])c(NC(C)c3ccccc3)c2)CC1 (configuration not stated),-1.73
8,N/C(=N\OC(=O)c1cc(Cl)ccc1Cl)c1ccccn1,-0.479
9,COc1ccc(CCNC(=O)c2ccn[nH]2)cc1OC,0.156
10,Cc1cc(C)nc(SCc2cn3cc(Cl)ccc3n2)n1,-0.113
11,CC(C)(C)c1cccc(/C=N/O)c1O,1.27
12,Clc1ccc(-c2nnc3ccccn23)cc1,-0.45
13,Cc1ccc2[nH]c3c(c2c1)CN(C)CC3,0.196
14,CCNC(=O)CC1SC(=Nc2ccc(Cl)cc2)N(CC)C1=O (configuration not stated),-0.31
15,CN(C)c1ccc2c(O)cc(=O)n(C)c2c1,0.0918
16,Clc1ccc(Cl)c(OCCCCNCc2ccccc2)c1,-0.0845
17,COC(=O)c1c(-c2ccccc2)csc1N,-0.446
18,CC(C)c1ccccc1NC(=O)COC(=O)Cc1ccsc1,0.502
19,O=C1CC(=O)N(Cc2cccs2)C(=O)N1,-0.277
20,CCCn1cc(S(=O)(=O)CC(=O)Nc2ccc(OC)cc2OC)c2ccccc21,-0.669
21,Cc1ccc(C(=O)Nc2cccc(C(=O)NCc3ccccc3)c2)cc1,0.486
22,c1ccc2c(-n3cccn3)cccc2c1,-0.0595
23,CCOC(=O)c1ccc(N/C=C/C(=O)c2ccco2)cc1,0.0424
24,CCN1CCN(c2cc(=O)n(C3CCCCC3)c(=O)[nH]2)CC1,0.288

row,Compound,z-score
1,O=C(Cn1cnc([N+](=O)[O-])c1)Nc1cc(Oc2ccc(Cl)cc2Cl)cc([N+](=O)[O-])c1,-0.00842
2,O=C(Nc1nccs1)C1CCCN(S(=O)(=O)c2cccnc2)C1 (configuration not stated),-0.233
3,O=C(CSc1nnc(-c2ccc(S(=O)(=O)N3CCCC3)cc2)o1)NCc1ccco1,-0.555
4,CC1CCC(C(C)C)C(OC(=O)CSc2nnc(N)s2)C1 (configuration not stated),-0.18
5,CCSc1nnc2c(n1)OC=Nc1ccc(Br)cc1-2,-2.12
6,Cc1ccc(-c2nnc(N(C)C(=O)c3cccnc3)s2)cc1,-0.281
7,CC(C)NC(=O)c1ccccc1NC(=O)CCS(=O)(=O)Cc1ccccc1,0.338
8,O=C(NNC(=O)C1CCCCC1)C(=O)NC1CCCCC1,0.347
9,Cc1noc(C)c1S(=O)(=O)N1CCCC(C(=O)Nc2nccs2)C1 (configuration not stated),-0.132
10,COc1cc(/C=C/C(=O)NCCN2CCOCC2)cc(OC)c1OC,-0.867
11,C=CCC(Nc1ccccc1)C12C=CC(O1)C(C(=O)OC)=C2C(=O)OC (configuration not stated),0.507
12,CCCCc1n[nH]c2c1/C(=N/O)CC(C)(C)C2,0.0176
13,O=C(Nc1cccc(-c2nc3ccccc3s2)c1)c1cc(=O)c2ccccc2o1,-0.035
14,COc1ccc(NC(=O)CC(=O)Nc2ccc(OC)cc2OC)c(OC)c1,-0.0921
15,COc1ccc(-c2nc(CSCC(=O)N3CCN(C(=O)c4ccco4)CC3)c(C)o2)cc1OC,-0.0951
16,CC(=O)NN1C(=O)/C(=C/c2ccc(Br)o2)SC1=S,-0.178
17,O=[N+]([O-])c1cccc(/C=N/n2c(C3CCCCC3)n[nH]c2=S)c1,0.141
18,CN(Cc1ccccc1)C(=O)CSc1nc2ccccc2c(=O)n1Cc1ccco1,-0.91
19,Cn1c(CCCOc2ccc(Cl)cc2Cl)nnc1SCC(=O)Nc1cccc(F)c1,-0.0527
20,COc1ccc(NS(=O)(=O)c2cc(NC(=O)c3ccc(C)o3)ccc2N2CCCCC2)cc1,-0.024
21,O=c1sc2ccccc2n1CCCOc1ccccc1,-0.0722
22,Cc1sc2nc(SCC(=O)OC(C)C)n(C)c(=O)c2c1C,0.997
23,O=C(c1ccc(N2CCCCCC2)c([N+](=O)[O-])c1)N1CCc2ccccc21,0.158
24,O=C1c2ccccc2C(=O)N1CCn1c(=O)oc2ccccc21,1.56
